Changes are numbered by the printed parent chain; changes in the protein carry UniProt numbers. Some of the results follow.
T1: RBFOX1 RRM (Homo sapiens, UniProt Q9NWB1 109-208)
T1 sequence: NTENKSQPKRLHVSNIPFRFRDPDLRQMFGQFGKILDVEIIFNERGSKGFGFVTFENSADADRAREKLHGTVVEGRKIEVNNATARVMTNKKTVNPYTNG

B1: UCCUCCU (DNA:RNA)
RNA: GGGAGACCGGAAUUCAGAUUGUCCUCCUCCUUUAAAUCCCGUCGUAGCCACCA
DNA 1: CAATCTGAATTCCGGTCTCCC
DNA 2: TGGTGGCTACGACGGGATT
B2: CUUUUCC (DNA:RNA)
RNA: B1 RNA with U25C, C26U, C27U, C29U, U31C
DNA 1: CAATCTGAATTCCGGTCTCCC
DNA 2: TGGTGGCTACGACGGGATT
B3: AGGAGCC (DNA:RNA)
RNA: B1 RNA with U25A, C26G, C27G, U28A, C29G, U31C
DNA 1: CAATCTGAATTCCGGTCTCCC
DNA 2: TGGTGGCTACGACGGGATT
B4: AGCGCGA (DNA:RNA)
RNA: B1 RNA with U25A, C26G, U28G, C30G, U31A
DNA 1: CAATCTGAATTCCGGTCTCCC
DNA 2: TGGTGGCTACGACGGGATT
B5: CUCAUGU (DNA:RNA)
RNA: B1 RNA with U25C, C26U, U28A, C29U, C30G
DNA 1: CAATCTGAATTCCGGTCTCCC
DNA 2: TGGTGGCTACGACGGGATT
B6: UAACCAC (DNA:RNA)
RNA: B1 RNA with C26A, C27A, U28C, C30A, U31C
DNA 1: CAATCTGAATTCCGGTCTCCC
DNA 2: TGGTGGCTACGACGGGATT
B7: UCAGCCU (DNA:RNA)
RNA: B1 RNA with C27A, U28G
DNA 1: CAATCTGAATTCCGGTCTCCC
DNA 2: TGGTGGCTACGACGGGATT
B8: UGGGUUU (DNA:RNA)
RNA: B1 RNA with C26G, C27G, U28G, C29U, C30U
DNA 1: CAATCTGAATTCCGGTCTCCC
DNA 2: TGGTGGCTACGACGGGATT
B9: CGCGUUU (DNA:RNA)
RNA: B1 RNA with U25C, C26G, U28G, C29U, C30U
DNA 1: CAATCTGAATTCCGGTCTCCC
DNA 2: TGGTGGCTACGACGGGATT
B10: CCUCUGU (DNA:RNA)
RNA: B1 RNA with U25C, C27U, U28C, C29U, C30G
DNA 1: CAATCTGAATTCCGGTCTCCC
DNA 2: TGGTGGCTACGACGGGATT
B11: AGCGUCA (DNA:RNA)
RNA: B1 RNA with U25A, C26G, U28G, C29U, U31A
DNA 1: CAATCTGAATTCCGGTCTCCC
DNA 2: TGGTGGCTACGACGGGATT
B12: AGAAGAU (DNA:RNA)
RNA: B1 RNA with U25A, C26G, C27A, U28A, C29G, C30A
DNA 1: CAATCTGAATTCCGGTCTCCC
DNA 2: TGGTGGCTACGACGGGATT
B13: CGCCGUC (DNA:RNA)
RNA: B1 RNA with U25C, C26G, U28C, C29G, C30U, U31C
DNA 1: CAATCTGAATTCCGGTCTCCC
DNA 2: TGGTGGCTACGACGGGATT
B14: AACGUGC (DNA:RNA)
RNA: B1 RNA with U25A, C26A, U28G, C29U, C30G, U31C
DNA 1: CAATCTGAATTCCGGTCTCCC
DNA 2: TGGTGGCTACGACGGGATT
B15: GCCCUUC (DNA:RNA)
RNA: B1 RNA with U25G, U28C, C29U, C30U, U31C
DNA 1: CAATCTGAATTCCGGTCTCCC
DNA 2: TGGTGGCTACGACGGGATT
B16: CAGGCUC (DNA:RNA)
RNA: B1 RNA with U25C, C26A, C27G, U28G, C30U, U31C
DNA 1: CAATCTGAATTCCGGTCTCCC
DNA 2: TGGTGGCTACGACGGGATT
B17: AGUCUGA (DNA:RNA)
RNA: GGGAGACCGGAAUUCAGAUUGUCCAGUCUGAUUAAAUCCCGUCGUAGCCACCA
DNA 1: CAATCTGAATTCCGGTCTCCC
DNA 2: TGGTGGCTACGACGGGATT
B18: UCUCGCG (DNA:RNA)
RNA: B1 RNA with C27U, U28C, C29G, U31G
DNA 1: CAATCTGAATTCCGGTCTCCC
DNA 2: TGGTGGCTACGACGGGATT
B19: UCAACUC (DNA:RNA)
RNA: B1 RNA with C27A, U28A, C30U, U31C
DNA 1: CAATCTGAATTCCGGTCTCCC
DNA 2: TGGTGGCTACGACGGGATT
B20: CAGCAAC (DNA:RNA)
RNA: B17 RNA with A25C, G26A, U27G, U29A, G30A, A31C
DNA 1: CAATCTGAATTCCGGTCTCCC
DNA 2: TGGTGGCTACGACGGGATT
B21: UCUCUCC (DNA:RNA)
RNA: B17 RNA with A25U, G26C, G30C, A31C
DNA 1: CAATCTGAATTCCGGTCTCCC
DNA 2: TGGTGGCTACGACGGGATT
B22: AAAUCUU (DNA:RNA)
RNA: B1 RNA with U25A, C26A, C27A, C30U
DNA 1: CAATCTGAATTCCGGTCTCCC
DNA 2: TGGTGGCTACGACGGGATT
B23: CCGUGUA (DNA:RNA)
RNA: B1 RNA with U25C, C27G, C29G, C30U, U31A
DNA 1: CAATCTGAATTCCGGTCTCCC
DNA 2: TGGTGGCTACGACGGGATT
B24: GCGUCGC (DNA:RNA)
RNA: B1 RNA with U25G, C27G, C30G, U31C
DNA 1: CAATCTGAATTCCGGTCTCCC
DNA 2: TGGTGGCTACGACGGGATT
B25: UGAUAUC (DNA:RNA)
RNA: B1 RNA with C26G, C27A, C29A, C30U, U31C
DNA 1: CAATCTGAATTCCGGTCTCCC
DNA 2: TGGTGGCTACGACGGGATT
B26: ACUUGGU (DNA:RNA)
RNA: B17 RNA with G26C, C28U, U29G, A31U
DNA 1: CAATCTGAATTCCGGTCTCCC
DNA 2: TGGTGGCTACGACGGGATT
B27: CUAGUGC (DNA:RNA)
RNA: B17 RNA with A25C, G26U, U27A, C28G, A31C
DNA 1: CAATCTGAATTCCGGTCTCCC
DNA 2: TGGTGGCTACGACGGGATT
B28: GUAAACG (DNA:RNA)
RNA: B1 RNA with U25G, C26U, C27A, U28A, C29A, U31G
DNA 1: CAATCTGAATTCCGGTCTCCC
DNA 2: TGGTGGCTACGACGGGATT
B29: UUUUGAU (DNA:RNA)
RNA: B1 RNA with C26U, C27U, C29G, C30A
DNA 1: CAATCTGAATTCCGGTCTCCC
DNA 2: TGGTGGCTACGACGGGATT
B30: UGCAAGA (DNA:RNA)
RNA: B17 RNA with A25U, U27C, C28A, U29A
DNA 1: CAATCTGAATTCCGGTCTCCC
DNA 2: TGGTGGCTACGACGGGATT
B31: UUAGCAA (DNA:RNA)
RNA: B1 RNA with C26U, C27A, U28G, C30A, U31A
DNA 1: CAATCTGAATTCCGGTCTCCC
DNA 2: TGGTGGCTACGACGGGATT

Biological target: T1, RBFOX1 RRM
Assay: EMSA; HiTS-Eq, 1 nM pool, 10 min; buffer printed only for the single-RNA assays: 10 mM Tris pH 7.5, 150 mM NaCl, 3.4 mM EDTA, 0.001% NP-40, 30 C
Conditions: tags: His6 N-terminal (pET28a); label: 5' 32P
Summary of the method: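 Purified wild-type or mutant RbFox RRM at increasing concentrations was equilibrated with 1 nM of 5′-radiolabelled RNA carrying 7 randomized nucleotides for 10 min in 50 µL. Unbound RNA was separated by 8% native PAGE and sequenced. Relative association constants came from read-count changes of each RNA species compared with the control reaction, normalised to the cognate motif.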

B1 was tested. Which binding signal did it give?
The binding signal was 0.00614 KA relative to UGCAUGU.

With B2 as the binder, how does the binding signal read?
Its binding signal is 0.00556 KA relative to UGCAUGU.

B3 was tested. Which binding signal did it give?
Its binding signal is 0.0149 KA relative to UGCAUGU.

With B4 as the binder, how does the binding signal read?
The binding signal was 0.0118 KA relative to UGCAUGU.

Which binding signal does the source give for B5 here?
The binding signal was 0.00582 KA relative to UGCAUGU.

Which binding signal does the source give for B6 here?
The binding signal was 0.00231 KA relative to UGCAUGU.

B7 was tested. Which binding signal did it give?
The binding signal was 0.00721 KA relative to UGCAUGU.

Which binding signal does the source give for B8 here?
Its binding signal is 0.0379 KA relative to UGCAUGU.

For B9, which binding signal is on record?
The binding signal was 0.0129 KA relative to UGCAUGU.

For B10, which binding signal is on record?
Its binding signal is 0.0147 KA relative to UGCAUGU.

B11 was tested. Which binding signal did it give?
The binding signal was 0.00417 KA relative to UGCAUGU.

B12 was tested. Which binding signal did it give?
The binding signal was 0.00881 KA relative to UGCAUGU.

With B13 as the binder, how does the binding signal read?
The binding signal was 0.0103 KA relative to UGCAUGU.

How did the binding signal turn out when B14 was run?
Its binding signal is 0.0114 KA relative to UGCAUGU.

For B15, which binding signal is on record?
The binding signal was 0.0106 KA relative to UGCAUGU.

How did the binding signal turn out when B16 was run?
The binding signal was 0.0127 KA relative to UGCAUGU.

How did the binding signal turn out when B17 was run?
Its binding signal is 0.0129 KA relative to UGCAUGU.

Which binding signal does the source give for B18 here?
Its binding signal is 0.0139 KA relative to UGCAUGU.

For B19, which binding signal is on record?
Its binding signal is 0.00152 KA relative to UGCAUGU.

B20 was tested. Which binding signal did it give?
Its binding signal is 0.00628 KA relative to UGCAUGU.

B21 was tested. Which binding signal did it give?
The binding signal was 0.00975 KA relative to UGCAUGU.

For B22, which binding signal is on record?
The binding signal was 0.00238 KA relative to UGCAUGU.

B23 was tested. Which binding signal did it give?
Its binding signal is 0.0108 KA relative to UGCAUGU.

With B24 as the binder, how does the binding signal read?
Its binding signal is 0.0157 KA relative to UGCAUGU.

How did the binding signal turn out when B25 was run?
The binding signal was 0.0132 KA relative to UGCAUGU.

For B26, which binding signal is on record?
The binding signal was 0.0153 KA relative to UGCAUGU.

B27 was tested. Which binding signal did it give?
Its binding signal is 0.014 KA relative to UGCAUGU.

With B28 as the binder, how does the binding signal read?
The binding signal was 0.00717 KA relative to UGCAUGU.

With B29 as the binder, how does the binding signal read?
Its binding signal is 0.0185 KA relative to UGCAUGU.

How did the binding signal turn out when B30 was run?
The binding signal was 0.0229 KA relative to UGCAUGU.

With B31 as the binder, how does the binding signal read?
The binding signal was 0.00742 KA relative to UGCAUGU.

— paper PMC9911399, “Two distinct binding modes provide the RNA-binding protein RbFox with extraordinary sequence specificity”
